Experimental data: article PMC9260856
Results are given in words; binding and its absence hold for the method and conditions named. In cells and extracts the contact can be indirect. Some binding calls cover weakened binding; strength is not graded here. For part of these data: Sequences can lack the tags named with a protein. Blank lines part the entries; values can stand above or below the molecule they belong to.

Chains of the proteins cited; added tags and fusions are not shown. Lines headed by an entry give the natural chain unless they say otherwise; changes in a name come on top.
UniProt P63208: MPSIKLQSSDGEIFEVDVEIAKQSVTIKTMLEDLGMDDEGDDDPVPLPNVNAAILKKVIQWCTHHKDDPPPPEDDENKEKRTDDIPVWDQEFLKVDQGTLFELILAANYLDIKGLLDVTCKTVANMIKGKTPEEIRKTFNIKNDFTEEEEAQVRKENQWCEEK
UniProt P68400: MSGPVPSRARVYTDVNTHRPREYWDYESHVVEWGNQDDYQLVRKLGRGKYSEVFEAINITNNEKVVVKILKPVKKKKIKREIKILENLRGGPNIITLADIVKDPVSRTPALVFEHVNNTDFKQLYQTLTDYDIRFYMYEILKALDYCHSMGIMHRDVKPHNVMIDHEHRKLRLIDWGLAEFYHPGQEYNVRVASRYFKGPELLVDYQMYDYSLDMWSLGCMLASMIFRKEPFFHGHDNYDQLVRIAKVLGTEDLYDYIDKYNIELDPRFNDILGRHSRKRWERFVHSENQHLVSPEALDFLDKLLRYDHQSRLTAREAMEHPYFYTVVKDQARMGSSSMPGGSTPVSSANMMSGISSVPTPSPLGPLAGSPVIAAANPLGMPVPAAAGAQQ

Columns and labels:
[1] = molecular target: T1, StrepII-FLAG-tagged ZXDA (SF-ZXDA), transfected in HEK293T cells (human) (UniProt P98168); experiment: co-IP; SF-tagged bait affinity-purified on Strep-Tactin Sepharose from whole-cell lysates of transfected HEK293T cells (150 mM NaCl, 50 mM Tris pH 7.5, 0.4% Triton X-100, Benzonase), desthiobiotin elution, immunoblot; MLN4924 before collecting where indicated
T1 sequence: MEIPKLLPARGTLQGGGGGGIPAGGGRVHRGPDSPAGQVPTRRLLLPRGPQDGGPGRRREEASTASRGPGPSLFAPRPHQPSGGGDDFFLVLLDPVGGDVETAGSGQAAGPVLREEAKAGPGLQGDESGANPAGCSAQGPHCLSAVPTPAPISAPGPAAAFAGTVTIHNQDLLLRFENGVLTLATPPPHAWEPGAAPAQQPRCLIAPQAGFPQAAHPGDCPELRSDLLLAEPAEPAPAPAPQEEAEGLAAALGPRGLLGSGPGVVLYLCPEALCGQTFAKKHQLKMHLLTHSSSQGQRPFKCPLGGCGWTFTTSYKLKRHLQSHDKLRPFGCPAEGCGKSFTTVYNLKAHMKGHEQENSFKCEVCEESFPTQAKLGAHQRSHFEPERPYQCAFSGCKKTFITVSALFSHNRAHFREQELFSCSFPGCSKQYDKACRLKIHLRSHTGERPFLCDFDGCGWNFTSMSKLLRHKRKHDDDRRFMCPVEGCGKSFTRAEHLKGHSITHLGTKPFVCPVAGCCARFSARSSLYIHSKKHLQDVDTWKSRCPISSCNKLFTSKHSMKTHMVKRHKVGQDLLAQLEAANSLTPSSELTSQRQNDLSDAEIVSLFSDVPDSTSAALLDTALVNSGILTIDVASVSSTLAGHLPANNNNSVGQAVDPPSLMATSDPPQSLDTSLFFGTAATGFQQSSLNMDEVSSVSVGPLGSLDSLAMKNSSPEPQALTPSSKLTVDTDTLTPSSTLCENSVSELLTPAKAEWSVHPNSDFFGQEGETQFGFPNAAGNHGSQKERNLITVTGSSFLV

[2] = molecular target: T2, SF-tagged DEDD2, transfected in HEK293T cells (UniProt Q8WXF8); experiment: as above
T2 sequence: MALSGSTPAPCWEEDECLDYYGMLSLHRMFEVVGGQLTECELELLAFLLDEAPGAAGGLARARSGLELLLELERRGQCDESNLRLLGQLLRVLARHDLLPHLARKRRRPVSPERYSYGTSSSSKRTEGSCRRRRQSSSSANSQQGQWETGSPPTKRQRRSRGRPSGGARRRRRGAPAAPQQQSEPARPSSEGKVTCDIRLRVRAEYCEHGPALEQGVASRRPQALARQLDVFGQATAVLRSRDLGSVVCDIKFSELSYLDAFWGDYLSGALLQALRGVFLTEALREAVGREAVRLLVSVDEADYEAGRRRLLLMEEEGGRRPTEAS

[3] = molecular target: T3, SF-Cyclin F, transfected in HEK293T cells (UniProt P41002); experiment: as above
T3 sequence: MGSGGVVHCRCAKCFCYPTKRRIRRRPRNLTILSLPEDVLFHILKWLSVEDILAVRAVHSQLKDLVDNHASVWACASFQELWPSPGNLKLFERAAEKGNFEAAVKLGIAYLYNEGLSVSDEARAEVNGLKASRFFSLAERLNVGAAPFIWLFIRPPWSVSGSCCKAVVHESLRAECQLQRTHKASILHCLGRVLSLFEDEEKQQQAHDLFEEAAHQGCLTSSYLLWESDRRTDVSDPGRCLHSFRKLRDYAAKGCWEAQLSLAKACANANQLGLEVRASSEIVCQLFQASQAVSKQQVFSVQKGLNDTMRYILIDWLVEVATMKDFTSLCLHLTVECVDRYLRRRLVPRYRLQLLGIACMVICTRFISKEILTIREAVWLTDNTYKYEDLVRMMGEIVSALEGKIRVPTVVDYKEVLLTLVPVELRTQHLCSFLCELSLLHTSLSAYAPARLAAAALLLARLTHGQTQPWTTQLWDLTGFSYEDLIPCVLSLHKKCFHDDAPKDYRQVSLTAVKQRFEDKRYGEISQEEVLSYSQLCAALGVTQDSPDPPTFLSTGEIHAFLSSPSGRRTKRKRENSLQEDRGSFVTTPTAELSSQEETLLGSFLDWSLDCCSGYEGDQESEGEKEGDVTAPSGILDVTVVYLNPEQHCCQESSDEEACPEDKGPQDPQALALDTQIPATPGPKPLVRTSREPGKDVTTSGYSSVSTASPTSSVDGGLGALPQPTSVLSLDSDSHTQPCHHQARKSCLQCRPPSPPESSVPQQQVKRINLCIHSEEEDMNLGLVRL

[4] = molecular target: T4, HA-tagged full-length (FL) ZXDA, transfected in HEK293T cells (human) (UniProt P98168); experiment: co-IP; HA-tagged ZXDA immunoprecipitated with anti-HA beads from whole-cell lysates of transfected HEK293T cells treated with MLN4924 for 6 h; immunoblot
T4 sequence: T1 sequence

binding [1]: binds
Molecule: SKP1, endogenous in HEK293T cells (from UniProt P63208 1-163)

binding [1]: binds
binding [2]: no binding
Molecule: casein kinase 2 (CK2), endogenous in HEK293T cells (from UniProt P68400 1-391; P67870 1-215) (complex)

binding [3]: binds
B1: RRM2, endogenous in HEK293T cells (protein, UniProt P31350 1-389)
chain: MLSLRVPLAPITDPQQLQLSPLKGLSLVDKENTPPALSGTRVLASKTARRIFQEPTEPKTKAAAPGVEDEPLLRENPRRFVIFPIEYHDIWQMYKKAEASFWTAEEVDLSKDIQHWESLKPEERYFISHVLAFFAASDGIVNENLVERFSQEVQITEARCFYGFQIAMENIHSEMYSLLIDTYIKDPKEREFLFNAIETMPCVKKKADWALRWIGDKEATYGERVVAFAAVEGIFFSGSFASIFWLKKRGLMPGLTFSNELISRDEGLHCDFACLMFKHLVHKPSEERVREIIINAVRIEQEFLTEALPVKLIGMNCTLMKQYIEFVADRLMLELGFSKVFRVENPFDFMENISLEGKTNFFEKRVGEYQRMGVMSSPTENSFTLDADF

binding [1]: binds
binding [4]: binds
B2: FBXO38, endogenous in HEK293T cells (protein, UniProt Q6PIJ6 1-1188)
chain: MGPRKKSVKTCIMNNEIPEEMTADETKDYMNQLSHEVLCHIFRYLPLQDIMCMECLSRKLKEAVTLYLRVVRVVDLCAGRWWEYMPSGFTDASFLTLLKKMPDVEQLYGLHPRYLERRRVRGHEAFSIPGVLEALQACPNLVGVETSHLELVESIWTYMPHVHILGKFRNRNGAFPIPPENKLKIPIGAKIQTLHLVGVNVPEIPCIPMLRHLYMKWVRLTKPQPFKDFLCISLRTFVMRNCAGPTNSLKYVPLVTGLASARNLEHLEMVRVPFLGGLIQHVVEDSWRSGGFRNLHTIVLGACKNALEVDLGYLIITAARRLHEVRIQPSLTKDGVFSALKMAELEFPQFETLHLGYVDEFLLQSRMANADLVKYGLADVVENPGIITDIGMKAVNEVFSCIKYLAIYNCPHLHNPYNWISDHSRWTRLVDINLVRCHALKLDSFGQFIELLPSLEFISLDQMFREPPKGCARVGLSAGTGIGVSSALVSNQNSNNDDNNAQNNNANIHDNNHHHPDDSDEENDFRQDLQPGEQQFAADALNEMEDIVQEDGEVVAESGNNTPAHSQAIIPVDVDEEQAGPSGLQRVVKPTSITVHDSESDDEEDSLELQEVWIPKNGTRRYSEREEKTGESVQSRELSVSGKGKTPLRKRYNSHQMGQSKQFPLEESSCEKGCQVTSEQIKADMKAARDIPEKKKNKDVYPSCSSTTASTVGNSSSHNTASQSPDFVRTVNSGGSSEPSPTEVDVSRQCACSPGGSEDSEAMEEGDAESSVCPRCCCHRPQESQRRTSRCSDEERPSTSRACVVNGPDGTRSAFSFRTLPQGGSSGPAHDERTNGSGSGATGEDRRGSSQPESCDVQSNEDYPRRPLTRARSRLSHVLLVSESEVAKTKPRHAMKRKRTADKSTSTSDPVIEDDHVQVLVLKSKNLVGVTMTNCGITDLVLKDCPKMMFIHATRCRVLKHLKVENAPIVNRFDYAQCKKLNMDQVLDQILRMPPERNRIIYLRPMQQVDTLTLEQKLFSGPYPYHICIIHEFSNPPNVRNKVRIRSWMDTIANINQELIKYEFFPEATRSEEDLKKYPKYPWGREIYTLEGVVDGAPYSMISDFPWLRSLRAAEPNSFARYDFEDDEESTIYAPRRKGQLSADICMETIGEEISEMRQMKKGVFQRVVAIFIHYCDVNGEPVEDDYI
